Measured values as given in PubChem BioAssay AID743279 (National Center for Advancing Translational Sciences (NCATS), 2014).
The campaign covered roughly 360,000 compounds. About 17,000 (4.7%) were called active. Inconclusive results, whose numbers are uncertain, are shown with a selection of clear calls. No stated cut-off is given here; in the data, active means activity change below about -50%; inconclusive means mostly about -30% to -49%; inactive means weaker than that.

assay: qHTS for Inhibitors of Inflammasome Signaling: IL-1-beta AlphaLISA Primary Screen; conditions: THP-1 LPS/ATP IL-1B secretion, 16 h; at 57.5 µM, stronger effect = lower value
In short: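 THP-1 cells pretreated 1 hr with compounds (up to 57.5 uM final), then stimulated with LPS (250 ng/mL final) plus ATP (1.25 mM final); secreted IL-1B measured by AlphaLISA after 16 hr, decreased signal indicating inhibition.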
On the % scale 0 is the no-effect control and ±100 the full control effect.

Structure (SMILES)	activity change
N#Cc1cc(C(=O)c2cc(Br)ccc2O)cn(Cc2ccccc2)c1=O	inconclusive: -43.1%
CC1(C)CC(NC(=O)N2c3ccccc3Sc3ccccc32)CC(C)(C)N1	inconclusive: -40.7%
O=C(Nc1ccccc1N1CCN(c2ccccc2)CC1)c1ccccc1	inconclusive: -37.1%
Cc1ccc2c(c1)nnn2C1CCN(CC(=O)NCc2ccccc2F)CC1	inconclusive: -32.7%
C=CCC1NS(=O)(=O)O[C@H](CCCC)[C@@H]1O (stereo partly drawn)	inactive: 27.9%
COc1ccc(C(N)=O)cc1NC(=O)CC(O)(C(F)(F)F)C(F)(F)F	inconclusive: -49.1%
COc1ccc(C(CNC(=O)c2cc(C)on2)N(C)C)cc1 (stereo not drawn)	inactive: -0.913%
O=C(c1ccc(N2CCCC2=O)cc1)N1CCN(c2cccc(C(F)(F)F)c2)CC1	inconclusive: -36.5%
O=C(NCc1ccncc1)c1ccc(S(=O)(=O)Nc2ccccc2)cc1	inactive: -3.42%
CC(=O)OCCN1CCN(C(=O)CN2C(=O)NC(c3ccccc3)(c3ccccc3)C2=O)CC1	inactive: -11.1%
Cc1ccc(NC(=S)NCCSc2ccc(Cl)cc2)cc1	active: -91.3%
Cn1cc(C(=O)c2ccc(F)cc2)cc1-c1nc2ccccc2n1C	inactive: -29%
COc1ccc(CNCC(=O)Nc2cccc(S(N)(=O)=O)c2)cc1	inactive: 16.7%
CCOC(=O)C(=O)Nc1nnc(CCc2ccccc2)s1	inconclusive: -32.9%
Cc1nc(CSc2nnc(Nc3cccc(C)c3C)s2)cs1	inconclusive: -40.3%
COc1ccc(-c2csc3ncnc(N4CCN(c5ccccc5OC)CC4)c23)cc1	inconclusive: -35.1%
Cc1ccccc1Nc1c(-c2cccnc2)nc2ccccn12	inconclusive: -38.2%
COC(=O)CN1C(=S)N(c2ccc(OC)cc2)C(=O)/C1=C/c1ccc(N2CCOCC2)cc1	inconclusive: -31.6%
COc1cc(NC(=O)Cc2ccccc2)ccc1NC(=O)c1ccccc1	inactive: -14.3%
CCC1CCCCN1CCCNC(=O)c1cn(CC(C)C)c(=O)c2cc(OC)c(OC)cc12 (stereo not drawn)	inconclusive: -34.6%
COc1ccccc1N1CCN(C(=S)Nc2ccc(S(=O)(=O)N3CCOCC3)cc2)CC1	inconclusive: -49.1%
Cc1ccc(OCCn2nnc3ccccc32)cc1C	inconclusive: -43.4%

Structure (SMILES)	activity change
O=C(NN=C1C2CC3CC(C2)CC1C3)c1cc(Cl)ccc1O	inactive: -16.9%
COc1cccc(CNC(=O)C2CCN(S(=O)(=O)N3CCC(C)CC3)CC2)c1	inactive: 18%
COc1ccc(-c2nn(-c3ccccc3)cc2C(=O)N(C)CC(=O)Nc2ccccc2Br)cc1	inconclusive: -31.9%
CCC(=O)CN(Cc1cc(OC)ccc1OC)S(=O)(=O)c1ccccc1Br	inactive: -2.8%
CCOC(=O)Cn1c(=O)oc2ccc(C)cc21	inconclusive: -32.4%
Cc1[nH]c2ccccc2c1CN1CCC(Cc2ccccc2)CC1	active: -85.1%
S=c1sc2ccccc2n1CCc1ccncc1	inactive: -11.9%
CCOc1cccc2sc(N(CCCN(C)C)C(=O)c3ccc(S(=O)(=O)N4CCCCCC4)cc3)nc12	inconclusive: -45.9%
O=C(CNC(=O)c1ccccc1F)N/N=C/c1cccs1	inconclusive: -48.5%
COc1cc(OC)cc(C(=O)OCC(=O)Nc2cccc(S(=O)(=O)NC3=NCCCCC3)c2)c1	inactive: 7.72%
C=CCN(CC=C)CCCOc1ccc(Br)cc1Cl	inactive: -20.8%
CN(C)c1ccc(C=c2c3ccccc3n3c2cc(-c2ccccc2)[n+]3C)cc1	active: -102%
COC(=O)C1=CN(c2ccc(C)cc2)C(N)=C(C#N)C1c1ccccc1F (stereo not drawn)	inactive: -11.6%
CCn1c(COc2ccc(C)cc2)nc2ccccc21	active: -75.8%
COc1ccc(C(C(=O)NC2CCCC2)n2c(Cc3cc(F)cc(F)c3)nc3ccccc32)cc1 (stereo not drawn)	inconclusive: -40.3%
COc1ccc(CNC(=O)c2sc3nc4c(c(C(F)(F)F)c3c2N)CCC4)cc1OC	inconclusive: -37.3%
Cc1ccc(Cn2ccc(-c3cnc(-c4ccccc4)s3)n2)cc1	inconclusive: -33.7%
CCOc1ccc(NC(=O)c2ccc(N3CC4CC(C3)c3cccc(=O)n3C4)c(NC(=O)CCN3CCOCC3)c2)cc1 (stereo not drawn)	inconclusive: -38.8%
CC(C)N1C(=O)CC(Nc2cccc3cccc(N)c23)C1=O (stereo not drawn)	inactive: -0.869%
O=C(CSc1ccc2c(c1)OCCO2)NCCc1ccc(Cl)cc1Cl	inconclusive: -40.1%
COc1ccc(C2=CSC(/N=C/c3ccc(F)cc3)=NN2)cc1	inconclusive: -30.3%
